Results from patent US20250195653A1, “MULTIFUNCTIONAL NATURAL KILLER (NK) CELL ENGAGER COMBINATION THERAPY FOR TREATING HEMATOLOGICAL NEOPLASTIC DISORDERS” (SANOFI, priority 2023, published 2025).
Entries after “also recorded” stand apart in the source; their conditions may differ.

System: MOLM-13 RFP AML cells
Assay: Incucyte in vitro killing assay with NK effector cells, E:T 1:1
Format: cell-based
Protocol: MOLM-13 RFP cells were generated by infecting MOLM-13 (DSMZ, ACC: 554) with the Incucyte® Nuclight Red Lentivirus (Sartorius #4476) to express a nuclear-restricted mKate2 (red fluorescent protein, RFP). MOLM-13 RFP cells were harvested in the same culture medium used for wild-type cells with the addition of 1 μg/mL of puromycin (Gibco, ref #A11138-03) to maintain the selection pressure.
Human NK cells were purified from PBMCs using MACSxpress® Whole Blood NK Cell Isolation Kit (Miltenyi, ref #130-127-695) according to supplier recommendations. […]
Cytotoxicity was evaluated using the Incucyte live-cells analysis system which allows to quantify the number of live fluorescent target cells over time.
First, 50 μL of CD123 NKCE and its isotype control were distributed in the appropriate wells of an F-bottom (flat-bottom) 96-well plate coated with poly-D-lysine (Greiner BioOne ref #655946). CD123 NKCE was tested at 5 ng/mL, while its isotype was evaluated at the highest concentration of 100 ng/ml. […]
The growth/proliferation of MOLM-13 RFP tumor cells was monitored by cell imaging up to 64 h using the Incucyte® S3 with standard scans every 4 h. […] Tumor cells growth/proliferation was calculated by counting the number of red cells at each time point, which was then normalized to the number of cells at time zero and expressed as a percentage.

B1: CD123 NKCE: multifunctional binding protein in F25 format with NKp46-binding and CD123-binding domains and competent Fc binding CD16a; bispecific NK cell engager (protein)
chain 1: DIVMTQSPDSLAVSLGERATINCESSQSLLSSGNQKNYLTWYQQKPGQPPKPLIYWASTRESGVPDRFSGSGSGTDFTLTISSLQAEDVAVYYCQNDYSYPYTFGQGTKLEIKRTVAAPSVFIFPPSDEQLKSGTASVVCLLNNFYPREAKVQWKVDNALQSGNSQESVTEQDSKDSTYSLSSTLTLSKADYEKHKVYACEVTHQGLSSPVTKSFNRGE[here human IgG1 Fc without letters]
chain 2: EVQLVQSGAEVKKPGESLKISCKGSGYSFTDYYMKWARQMPGKGLEWMGDIIPSSGATFYNQKFKGQVTISADKSISTTYLQWSSLKASDTAMYYCARSHLLRASWFAYWGQGTMVTVSSASTKGPSVFPLAPSSKSTSGGTAALGCLVKDYFPEPVTVSWNSGALTSGVHTFPAVLQSSGLYSLSSVVTVPSSSLGTQTYICNVNHKPSNTKVDKRV[here human IgG1 Fc without letters]TGSQVQLVQSGAEVKKPGSSVKVSCKASGYTFSDYVINWVRQAPGQGLEWMGEIYPGSGTNYYNEKFKAKATITADKSTSTAYMELSSLRSEDTAVYYCARRGRYGLYAMDYWGQGTTVTVSSASTKGPSVFPLAPSSKSTSGGTAALGCLVKDYFPEPVTVSWNSGALTSGVHTFPAVLQSSGLYSLSSVVTVPSSSLGTQTYICNVNHKPSNTKVDKRVEPKSCDKTHS
chain 3: DIQMTQSPSSLSASVGDRVTITCRASQDISNYLNWYQQKPGKAPKLLIYYTSRLHSGVPSRFSGSGSGTDFTFTISSLQPEDIATYFCQQGNTRPWTFGGGTKVEIKRTVAAPSVFIFPPSDEQLKSGTASVVCLLNNFYPREAKVQWKVDNALQSGNSQESVTEQDSKDSTYSLSSTLTLSKADYEKHKVYACEVTHQGLSSPVTKSFNRGEC
5, 10 and 100 ng/ml, compared to isotype control
  cytotoxic effect against MOLM-13 RFP cells as single agent: cytotoxic effects
CD123 NKCE 5 ng/mL, AZA 600 nM or VEN 2 nM, with NK cells
  target cell lysis, single agent: increased target cell lysis; also recorded: some target lysis
